± gives the standard deviation of the averaged measurements. The list shows a part of the results.
System: OVCAR8
Test: cell count relative to DMSO vehicle (fold change); OVCAR8 is a high-grade serous ovarian cancer line and CX-5461 an RNA polymerase I inhibitor; higher = more surviving senescent cells (less killing)
Conditions: senescence inducer: CX-5461 3 µM 48 h, then 6 d recovery (CX senescent), exposure time 24 h

In the case of `Cc1nc[nH]c1CN1CCN(C(=O)N[C@@H](CC(C)C)C(=O)O)[C@@H](Cc2ccccc2)C1=O`, the cell count (compound dose 1 µM) is reported as 1.09 ± 0.27 and the cell count (compound dose 5 µM) is reported as 0.924 ± 0.19.
